From the supplement of paper PMC11417369
The list shows a part of the results.

Tested on: PfSIP2 AP2 domain 1 (GST-tagged)
Assay: gcPBM binding intensity (ln(normalized median fluorescence intensity)); higher = stronger DNA binding
How it was run: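 Each value is the highest Masliner-normalised natural-log median intensity across replicate spots of either orientation of a probe. The probes were primer-extended double-stranded 36-bp intergenic genomic sequences on an Agilent 4 × 180k array, alongside negative controls, exposed for 1 h to GST-tagged P. falciparum DNA-binding domains expressed in E. coli. Bound protein was picked up with Alexa488 anti-GST antibody and scanned at 488 nm.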

Sequence	gcPBM binding intensity (ln)
ATTTATGATATGTAAACATGCATAAAAATTTCAAAA [TGCATGCA_site858]	6.86
AATGGGTTAGCACATACACACCAATATATTATATAT [CACACA_site9011]	7.23
TATAAACTTAATTTGAGTACTTAATAATAATTTTGT [XGTACX_site3730]	7.09
TATATATGTATATATGGTACAGAATATTCTACATTA [XGTACX_site5077]	6.91
CATCCACATATATGTACACACATATATATATATATA [CACACA_site2964]	9.58
TACCACATCGGTAAATGTACTTATAAAAAAAAAAAA [XGTACX_site3364]	6.83
CAATCATTTTATTGTTGTACAGTAATTATGAATTCA [XGTACX_site7508]	6.83
TTGGTACCTATAGATACACACATATATACATATATA [CACACA_site3402]	7.03
TAAGAGTAGTTATATACACACATGTATATTATAGTT [CACACA_site6815]	6.84
TATATATATATATTATGTACGTATCAGTTTGTATGT [XGTACX_site695]	9.22
CACGACATTAACAATACATGCAGAAAAACAAAAAAT [TGCATGCA_site689]	7.15
TTATAAATTAGAGGTACACACAAAAAAAAAAAGAAA [CACACA_site6740]	7.27
ATTTTTAATATTATTACACACACTAAAAAAAAAAAA [CACACA_site1067]	7.06
TATAAGAGAAGAAGAAAAAAAAGGTTTCTATAGAAA [XGTACX_negctrl_site421]	6.59
CATATAGTAATATATACACACACTTGTCTTGTAAAA [CACACA_site8238]	6.89
AAGAAGCATAAATGTACACACATATTTATATATTAA [CACACA_site1332]	7.04
ATATTTATAATTTTTTGTACACATTTTTTAAAGATA [XGTACX_site1784]	7.27
TACATATAAATATATAAATATAAATAAATAAATAAA [XGTACX_negctrl_site180]	6.93
TTTTTTTTTTTTTTTGCACACACATTGAATTATTAT [CACACA_site198]	7.41
AAATGGAAAAGGTGTACACAAAAAAAAGGGAAAAGC [CACACA_site5331]	7.83
TTACCAAAAACCTCAAGTACAAAAAATCCCTAATAT [XGTACX_site2313]	6.95
CTTTATATATAGTGTACACATTAAACAAATCTCAAT [CACACA_site5845]	7.42
ATAGTATACAGACACACACACACACGGATATAAATA [CACACA_site6914]	7.17

Sequence	gcPBM binding intensity (ln)
ATATATATATATATATGTACTAAATATTCATCCTTA [XGTACX_site6039]	9.48
AAGTTTAAGAAATAATTCATATTTACTTCCATCCTC [GTGCAC_negctrl_site494]	6.67
ATACGAAAATATTTTGCACACTATAATTATTCATAT [CACACA_site1765]	7.46
TTTCCCTACCAAAAGTGTACTTATACATATTTTTAT [XGTACX_site5495]	7.38
AAAAAAAAAAAAAAAGTGCATTAATAAATTTTAATA	9.57
ACATCTATGTATAATACACACACTAATATATAATTG [CACACA_site5134]	6.94
ACATATTATTCTTCTTGTACACATAAATTTTATAAA [XGTACX_site299]	7.51
TTTTTTTCATAATATACACACAAAAAAAAAAAAAAA [CACACA_site3224]	7.09
TATACTCATATATAAACACACAAAAAAAAAAAAAAA [CACACA_site5165]	7
ATATATATATATATGTGTACATATATATATCATATG [XGTACX_site3126]	9.35
TCTTATAATTTACCTACACACAGGAAATATATAAAT [CACACA_site294]	7
TCAGAAATATTACAAAGTACATGCAACGAAAATTTC [XGTACX_site5061]	6.83
ACACAATGTAGTGTATAAATACAATAAAAGGTTGTA [TGCATGCA_negctrl_site251]	6.7
TGATATTTAAATTTTGCACACGCATATGAAATTAGG [CACACA_site1034]	7.37
ATGACGTAGTGGTGTACACACATGGTACCTTTATTC [CACACA_site1547]	7.21
AAAAAAATATTCAAAGCATGCCTATTTACACATATT [TGCATGCA_site806]	6.83
TCTATTATCCTTTGCACACAAAATAAATGAAAAAAT [CACACA_site3029]	7.83
ATATAAGTTTTTTCTCAAAAAGTATAACGAGCATGA [CACACA_negctrl_site1375]	7.21
TTTGATAAATGATACACACACAATATTTATAAAATA [CACACA_site7040]	6.92
ACATTATATAAATATATACATATATATATATATAAA [GTGCAC_negctrl_site115]	7.3
CCCACGTATATTTTGTGTACATAAATAAATAAATAA [XGTACX_site4046]	7.43
TGTCATGATACATACACACACATACACATACACATA [CACACA_site2135]	7.23
AAACAACAAAAATGATATATATAAAATTTATAATAT [XGTACX_negctrl_site185]	6.93

Sequence	gcPBM binding intensity (ln)
TATTTAATTATATAAAATTAAATTTTTAATTCTTCC [CACACA_negctrl_site473]	6.49
ATGCATAAAAGAAATACACACATAAATATATAAATA [CACACA_site2163]	7.02
TATGGATTACACAATTGTACAAGAAAAATGTAAATA [XGTACX_site4040]	7.13
TATTTATTTATTTTGTTATAATTAAAATGGATACAT [XGTACX_negctrl_site387]	7.03
AGTAGTCTGGAGAAGAGTACATAGTATCTGGTAGCT [XGTACX_site2017]	6.85
CTACACACTTATAAATGTACAGGATTTAAGTATATG [XGTACX_site8245]	6.98
AAATATAATAATACATTGCACATATATTATATATAT [TGCATGCA_negctrl_site611]	7.64
TGTAATAATCTTCATTTCTTTTTTTTTTTTTTTTGT [CACACA_negctrl_site1388]	6.71
TAACTTAATAAAAAAAGTACATATATTTTTAATAAA [XGTACX_site2707]	6.98
AGTGAATATTACGAAACACACAAAAAAATACATTTC [CACACA_site511]	6.76
GTTTATATGTTCATAGTGCATATATGTTGATTTATT	8.15
TTTTTTTTTTTTTACTGTACTTAATAAGATTGAATA [XGTACX_site2384]	7.24
TATAAAAAAAAAAAAAAAAAAAAAAAAAAAAAAAAA [TGCATGCA_negctrl_site42]	7.03
AAATTATAAAAATGTAGTACAGACAATATATTCGTA [XGTACX_site8307]	7.34
ATAAATATTATTTTACGTACATATTTATGAAGTATT [XGTACX_site8746]	7.47
CAGGAGAGAAAATATCGTACAAGCAAAAATAAGTGG [XGTACX_site8557]	7.46
TATTATTTTAAGATTGTTTATGTAAAGAATTATGAA [CACACA_negctrl_site445]	6.89
TGTGTATATATGCTGGTGCAACTTTAAAAAATAATC	10.1
AAATTATATACCACAGTGCAAAAGGCAGGTATACGT	7.67
GTAGAGAAAAAAATGTGGACACAAAAAATAAAAAGG [XGTACX_site4058]	7.57
TTTTTTTTTTTTTGCACACACATATATAAATATATA [CACACA_site3949]	7.17
TATATTGCAAAAAGTACACACATAAATAAATACATA [CACACA_site6589]	7.23
TATTCTAGAATTTTAACACACAAGAATATAAACTTT [CACACA_site6757]	6.73

Sequence	gcPBM binding intensity (ln)
ATTTTTAAATACAGTACACACATGGGTTTAAATTAT [CACACA_site2884]	7
GGTTATATGATAGGATGTACAATTAAAAGTAAATAT [XGTACX_site5083]	7.25
TCCTATAAACAAATTTGTACATATAAGAATATATTC [XGTACX_site3892]	7.08
TTATTATTCTTAAGGATATAACAAAAAAGAAAAATT [CACACA_negctrl_site1402]	6.87
TATTTATATTTATATACACACATATATACCTATATA [CACACA_site7820]	6.95
GATTATTTTAGAAGTACACACATTTATATATAATAA [CACACA_site5429]	7.38
TAAAATATAATGATCACACATATAAACAAGTGGGTA [CACACA_site4651]	6.86
GCCGCACCCAGATACGCACACAAGAAAAAAATATTC [CACACA_site3456]	11.1
TATGGATAAATAAATACACACATAAATTTAAATATA [CACACA_site1282]	6.94
TATAAACGCACCTACACACACAACGTAAATGCATTG [CACACA_site7120]	10.6
TGAACATTATAGAAAAGTACTTAGTTTTTAAAAAGA [XGTACX_site6864]	7
TATTCAAAACGGTATTGTACAAATTTTATAATTTAA [XGTACX_site6928]	6.78
AATTTAATTGTGAGAGTGCGTACTGCTCCACATATA	7.67
TATATATATAAATACACACACACAAAAAAAAAAAAA [CACACA_site4930]	7.74
ATGTGTTTGTATATATGTACATATTTATGTTATTTC [XGTACX_site6960]	7.42
AAAAAAAAAAAAAAAAAAAAAAAAAAATGAGATACA [GTGCAC_negctrl_site160]	8.62
TTTTGATATATGAATATTAAGTTATATAATATTTTA [TGCATGCA_negctrl_site39]	6.66
AAAAGGATATATGAAAGTACAAAGGTATAGTATATT [XGTACX_site7385]	7.06
TACAGTAAAAATAGTTGTACTTGTTTATTTCTTCTT [XGTACX_site7674]	6.8
ATCTTATCATTTTAAAGTACATAATTAATTCTTTTT [XGTACX_site3999]	7.27
